Data taken from publication PMC5360024, “The Alzheimer’s disease risk factors apolipoprotein E and TREM2 are linked in a receptor signaling pathway” (Journal of Neuroinflammation, 2017).

How the values were obtained:
[1] = target: Murine TREM2 fused to CD8 transmembrane and CD3ζ intracellular signaling domains, on BWZ-mTREM2 reporter cells (mouse | ); assay: cell-based or functional assay
[2] = target: T1, Recombinant human TREM2 (human, UniProt Q9NZC2 19-174); assay: cell-based or functional assay
T1 sequence (looked up): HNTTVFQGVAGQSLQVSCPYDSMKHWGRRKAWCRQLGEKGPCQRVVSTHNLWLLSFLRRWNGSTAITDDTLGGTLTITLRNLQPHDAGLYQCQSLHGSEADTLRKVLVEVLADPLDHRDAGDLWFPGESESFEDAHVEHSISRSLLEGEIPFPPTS

- EC50 of NFAT/lacZ β-galactosidase reporter signal in BWZ-mTREM2 cells, wells coated with ApoE (3-300 nM) [1]: 40 nM
- EC50 of NFAT/lacZ β-galactosidase reporter signal in BWZ-hTREM2 cells, wells coated with ApoE (3-300 nM) [2]: 27 nM
B1: Recombinant human ApoE ε2 (ligand)
chain: not shown
